This is an account of results in article PMC12040169 (PLOS Biology, 2025).

This is one part of the list.

The assay concerns T1, C. trachomatis L2/434/Bu expressing GFP (CTL2-GFP).
T1 construct: L2/434/Bu GFP intracellular growth in HeLa cells
Further details: species or system HeLa; C. trachomatis total inclusion area by high-content imaging, normalised to DMSO. The conditions noted are these: total inclusion area; 28.5 h, 10 µM; inhibitor. The method in brief:
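Host cell viability was gauged from Hoechst-stained nuclei counts, while chlamydial growth was taken from total inclusion area and inclusion number per well. Cells were fixed and imaged by high-content microscopy once bulk GFP and resorufin fluorescence had been measured.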
With `CC(C)(C)C(=O)N1CC(n2nc(-c3ccccc3)ccc2=O)C1` [CBK284623], the “% of control remaining” value amounted to 90.9091.

`CCN(CC)CCSc1nc2sc3c(c2c(=O)n1-c1ccccc1)CC(C)(C)OC3` [CBK263728]: the “% of control remaining” value was determined as 74.2335.

Turning to `Cc1ccc(C(C)(C)CC(C)NC2C3CC4CC(C3)CC2C4)o1` (stereo not drawn) [CBK262871], the “% of control remaining” value was 117.627.

Regarding `Cc1cc(C)n(CC(C)CNC(=O)CCCN(C)C)n1` (stereo not drawn) [CBK304831], the “% of control remaining” value is 57.8669.

As to `O=C(Nc1c(Cl)cccc1Cl)c1ccc(-c2ccccc2)cc1` [CBK262300], the “% of control remaining” value is listed as 58.936.

For `Cc1nc2cc(OCc3nc(C(=O)N(C)CCN(C)C)co3)ccc2s1` [CBK306685], the “% of control remaining” value turned out to be 39.4756.

`Cc1nc2c(OCc3ccc(F)c(F)c3)cccn2c1N(C)C(=O)CCC1CCCC1` [CBK147202]: the “% of control remaining” value was 128.749.

Turning to `OCCN1CCN(c2nc3ccccc3nc2-c2ccccc2)CC1` [CBK268799C], the “% of control remaining” value was 88.0101.

For the molecule `COc1cc(-c2noc(-c3cc(-c4ccccc4)n[nH]3)n2)cc(OC)c1OC` [CBK287774], the “% of control remaining” value is on record as 100.721.

With `NS(=O)(=O)c1cccc2c1CC1(CC2)OCCO1` [CBK010703], the “% of control remaining” value came to 92.2642.

For the molecule `CC(C)c1cc(C(=O)N2CCOCC2)c(NC(=O)c2cc(-c3cccnc3)nc3ccc(Br)cc23)s1` [CBK267763], the “% of control remaining” value is 104.685.

For `O=C(c1ccc(-c2cncc(-c3ccc(Cl)s3)n2)cc1)N1CCOCC1` [CBK138517], the “% of control remaining” value came to 99.1282.

Turning to `O=c1[nH]nc2c(S(=O)(=O)N3CCOCC3)cccn12` [CBK288469], the “% of control remaining” value was found to be 45.3223.

For the molecule `Cc1nn(CC(=O)N(C)CCn2ccnc2C)c(=O)c2ccccc12` [CBK306536], the “% of control remaining” value was found to be 37.2423.

In the case of `Nc1ncc(-c2ccoc2)nc1-c1ccc(C(=O)O)cc1` [CBK063972], the “% of control remaining” value came to 72.7367.

As for `COc1ccc(CCNC(=O)c2cccc(-c3ccc(OC4CCNCC4)cc3)n2)cc1OC` [CBK126548T], the “% of control remaining” value came out at 71.4893.

For `O=C(c1ccccc1)c1ccc(NC(=O)c2ccccc2F)c(NC(=O)c2ccccc2F)c1` [CBK265183], the “% of control remaining” value was found to be 60.5464.

Regarding `CC(C)[C@H]1CN(Cc2ccccc2F)CCN1C(=O)Cn1ncc2ccccc2c1=O` [CBK286172], the “% of control remaining” value worked out at 120.611.

With `CC(C)Sc1nnc(N2C(N)=C(C#N)C(c3cccs3)C3=C2CCCC3=O)s1` (stereo not drawn) [CBK293989], the “% of control remaining” value amounted to 76.1535.

As to `CC(C)(C)S(=O)(=O)Nc1nccnc1-c1ccc(OCc2ccccc2)cc1` [CBK050886], the “% of control remaining” value was 123.375.

Consider `CC(C)CN(Cc1ccc2c(c1)OCO2)C(=O)NCc1ccc(Cl)c(Cl)c1` [CBK159069], for which the “% of control remaining” value is 105.286.
